{
  "source": "PubChem BioAssay AID2675",
  "about": "(National Center for Advancing Translational Sciences (NCATS), 2010)",
  "note": "Hit rate of the full screen: of about 280,000 compounds, about 100 (0.036%) were called active. The shares of active, inactive and inconclusive entries below differ from those in the screen. Calls come from the whole dose curve; as a rule, active = well fitted inhibition curve with a large enough effect in the signal ratio, with a control signal flat (not every such curve was filed as active); inconclusive = small, poorly fitted or top-dose-only effect, or effect the other way, or a change in a side signal; inactive = no such curve, though single readings can be large or run the other way; the % refers to the signal ratio. A potency beside an inconclusive call is a rough fit, not a confirmed value. “Side channel” marks fits to a control or component signal instead of the main read-out. Potency is the fitted concentration of half-maximal effect; tags give direction and shape of the fitted curve or compound fluorescence and quenching.",
  "data": [
    {"biological_target": "Muscleblind-like protein 1 (Homo sapiens) (UniProt Q9NR56)", "sequence (Q9NR56 whole entry, looked up)": "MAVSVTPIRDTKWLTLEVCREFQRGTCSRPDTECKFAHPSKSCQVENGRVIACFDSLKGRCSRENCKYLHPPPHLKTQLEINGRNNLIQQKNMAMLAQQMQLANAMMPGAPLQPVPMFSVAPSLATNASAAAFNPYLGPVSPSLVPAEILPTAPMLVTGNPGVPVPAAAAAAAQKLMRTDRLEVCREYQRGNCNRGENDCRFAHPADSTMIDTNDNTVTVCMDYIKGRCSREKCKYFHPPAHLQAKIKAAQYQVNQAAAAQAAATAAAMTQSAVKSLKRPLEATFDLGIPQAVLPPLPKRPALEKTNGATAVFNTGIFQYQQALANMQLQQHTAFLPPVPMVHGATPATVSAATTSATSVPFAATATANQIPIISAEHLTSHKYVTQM", "test": "qHTS Assay for Inhibitors of MBNL1-poly(CUG) RNA binding", "conditions": "TR-FRET MBNL1-His/biotin-(CUG)12 binding, 665/545 ratio; series mostly up to 57.5 µM", "summary_of_the_method": "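Compound titration spanned 92 nM–58 uM against the MBNL1-His/biotin-(CUG)12 complex. After 60 min at room temperature with 5 nM streptavidin-XL665 and 0.055 ng/ul terbium anti-His, ratiometric 665/545 nm emission (Ex 340 nm) normalized to controls.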", "values": [
      {"smiles": "CCOC(=O)/C(C#N)=C/c1ccc(OCC(=O)Nc2cc(C)ccc2C)c(OC)c1", "Potency": "inactive"},
      {"smiles": "COc1ccc(CNC(=O)CSc2ccsc2[N+](=O)[O-])cc1", "Potency": "inconclusive: 39.8 µM [quencher, single point]"},
      {"smiles": "O=C(NCCNc1ccc([N+](=O)[O-])cc1C(F)(F)F)c1ccccc1F", "Potency": "inconclusive: 25.1 µM [quencher, single point]"},
      {"smiles": "CCOC(=O)N=Nc1c2ccccc2c2nc3no[nH]c3nc12", "Potency": "inconclusive: 2.82 µM [quencher, side channel, full curve]"},
      {"smiles": "O=C(c1cnn2c(C(F)(F)F)cc(-c3cccs3)nc12)N1CCOCC1", "Potency": "inconclusive: 5.01 µM [quencher, side channel, partial curve]"},
      {"smiles": "COc1cccc(C(C(=O)NC2CCCC2)N(CC2CCCO2)C(=O)Cc2cccs2)c1", "note": "(configuration not stated)", "Potency": "inactive"},
      {"smiles": "COc1ccc2c(c1OC)C(=O)N(c1cccc(NC(C)=O)c1)C2", "Potency": "inactive"},
      {"smiles": "COc1ccc(C)cc1NC(=O)CCNS(=O)(=O)c1cccc2nonc12", "Potency": "inconclusive: 14.1 µM [quencher, partial curve]"},
      {"smiles": "CCN(CC)C(=O)C1CCCN(c2ccccc2[N+](=O)[O-])C1", "note": "(configuration not stated)", "Potency": "inconclusive: 25.1 µM [quencher, side channel, partial curve]"},
      {"smiles": "CC(C)C(=O)N1CCN(c2ccc(NC(=O)COc3ccccc3[N+](=O)[O-])cc2)CC1", "Potency": "inconclusive: 17.8 µM [quencher, side channel, partial curve]"},
      {"smiles": "Cc1cccc(C(=O)Nc2cccc3cccnc23)c1", "Potency": "inactive"},
      {"smiles": "CCN(CC)c1ccc(/C=C(/C#N)c2nc3ccccc3[nH]2)c(OC(C)C)c1", "Potency": "inconclusive: 25.1 µM [quencher, side channel, single point]"},
      {"smiles": "CCN1C(=S)SC(=O)C1=C1C=C(C)N(CCO)C(C)=C1", "Potency": "inconclusive: 25.1 µM [quencher, side channel, single point]"},
      {"smiles": "CC(C)NS(=O)(=O)c1cc(F)ccc1CN1C(=O)c2cccnc2C1=O", "Potency": "inconclusive: 28.2 µM [quencher, single point]"},
      {"smiles": "COC(=O)/C(N=Nc1c(C)n(C)n(-c2ccccc2)c1=O)=C(\\C)O", "Potency": "inconclusive: 25.1 µM [quencher, side channel, single point]"},
      {"smiles": "CCOC(=O)/C(C#N)=N/Nc1ccccc1C(=O)O", "Potency": "inconclusive: 15.8 µM [quencher, side channel, single point]"},
      {"smiles": "N#Cc1c2ccccc2nc2ccccc12", "Potency": "inconclusive: 12.6 µM [quencher, side channel, partial curve]"},
      {"smiles": "N#Cc1c(/N=C/c2cccs2)sc2c1CCC2", "Potency": "inconclusive: 15.8 µM [quencher, side channel, partial curve]"},
      {"smiles": "O=C(CSc1ncnc2c1oc1ccccc12)c1cccs1", "Potency": "inconclusive: 25.1 µM [fluorescent, side channel, single point]"},
      {"smiles": "O=C(CSc1nnc(CNC(=O)c2cccs2)o1)NCCc1ccccc1", "Potency": "inconclusive: 8.91 µM [quencher, side channel, single point]"},
      {"smiles": "COCc1cc(C)nc(SCc2ccc([N+](=O)[O-])cc2)c1C#N", "Potency": "inconclusive: 15.8 µM [quencher, side channel, partial curve]"},
      {"smiles": "CC(=O)Nc1ccc(S(=O)(=O)NCc2cn3c(C)csc3n2)cc1", "Potency": "inconclusive: 63.1 µM [inhibitor, single point]"},
      {"smiles": "O=C(CCNS(=O)(=O)c1cccc2nsnc12)N1CC(=O)N(CCc2ccccc2)C(=O)C1", "Potency": "inconclusive: 3.98 µM [quencher, side channel, full curve]"},
      {"smiles": "COc1ccccc1C(=O)N1CCNC(=O)C1CC(=O)Nc1ccc(Cl)cc1", "note": "(configuration not stated)", "Potency": "inconclusive: 3.98 µM [quencher, side channel, single point]"},
      {"smiles": "COc1cccc(C(=O)Nc2ccc(-n3nncc3C(C)(C)C)cc2)c1", "Potency": "inconclusive: 1.58 µM [fluorescent, side channel, partial curve]"},
      {"smiles": "CC(C)N(C(=O)Cn1c(=O)oc2ccccc21)c1ccccc1", "Potency": "inactive"},
      {"smiles": "CC(=O)Nc1nc2ccccc2n1CCOc1ccccc1", "Potency": "inactive"},
      {"smiles": "Cc1ccc(-n2c(-c3cccc(C)c3)n[nH]c2=S)cc1", "Potency": "inactive"},
      {"smiles": "O=C(Nc1ccc(O)cc1)/C(=C\\C=C\\c1ccccc1)NC(=O)c1ccccc1", "Potency": "inconclusive: 3.16 µM [quencher, side channel, full curve, poor fit]"},
      {"smiles": "Cc1c(N2C(=O)/C(=C/c3ccccc3)SC2=S)c(=O)n(-c2ccccc2)n1C", "Potency": "inconclusive: 3.55 µM [quencher, side channel, full curve, poor fit]"},
      {"smiles": "COc1ccc(/C=C/C(=O)NNc2cc(=O)n(C)c(=O)n2C)cc1OC", "Potency": "inconclusive: 20 µM [quencher, side channel, single point]"},
      {"smiles": "CC(C)OC(=O)c1ccccc1C(=O)c1ccc(N)c([N+](=O)[O-])c1", "Potency": "inconclusive: 15.8 µM [quencher, side channel, partial curve]"},
      {"smiles": "CC(=O)N1c2ccc(S(=O)(=O)NCCC(=O)Nc3cccc(Cl)c3)cc2CC1C", "note": "(configuration not stated)", "Potency": "inconclusive: 3.55 µM [quencher, side channel, full curve]"},
      {"smiles": "Clc1ccc(-c2nc(/C=N/N3CCOCC3)c3ccccn23)cc1", "Potency": "inconclusive: 8.91 µM [quencher, side channel, partial curve]"},
      {"smiles": "CCC1NC(=S)NC(C)=C1C(=O)c1ccccc1", "note": "(configuration not stated)", "Potency": "inactive"},
      {"smiles": "Cc1c(Cl)c([N+](=O)[O-])nn1CCCC(=O)Nc1cccnc1", "Potency": "inconclusive: 15.8 µM [quencher, side channel, partial curve]"},
      {"smiles": "CCOC(=O)C(CC)/C(C)=N/NC(=O)c1ccccc1[N+](=O)[O-]", "note": "(configuration not stated)", "Potency": "inactive"},
      {"smiles": "Cc1n[nH]c(=S)n(NC(=O)/C=C/C(=O)Nn2c(=S)[nH]nc(C)c2=O)c1=O", "Potency": "inconclusive: 25.1 µM [quencher, side channel, partial curve]"},
      {"smiles": "COc1cc(CNn2nnnc2N)cc(Br)c1OCc1c(Cl)cccc1Cl", "Potency": "inactive"},
      {"smiles": "CCCn1c(C(CO)Nc2nc(-c3cccc(Br)c3)cs2)nc2ccccc21", "note": "(configuration not stated)", "Potency": "inactive"},
      {"smiles": "CCN(CC)c1ccc(/C=N/NC(=O)c2cnccn2)cc1", "Potency": "inconclusive: 12.6 µM [quencher, partial curve]"},
      {"smiles": "O=c1oc2ccccc2cc1-c1ccc(O)cc1", "Potency": "inconclusive: 3.16 µM [quencher, side channel, single point]"},
      {"smiles": "CCN1C(=O)CSC1=Nc1ccc(OC)cc1", "Potency": "inactive"},
      {"smiles": "COC(=O)CCC(=O)OC1(C)C(=O)C=C2C=C(C3CC3)N(CCCCO)C=C2C1=O", "note": "(configuration not stated)", "Potency": "inconclusive: 28.2 µM [quencher, side channel, partial curve, poor fit]"},
      {"smiles": "Cc1ccc(CNc2ccc(O)cc2)cc1", "Potency": "inconclusive: 63.1 µM [inhibitor, single point]"},
      {"smiles": "Cc1cc(C)c2[nH]c(=O)c(CN(Cc3cccs3)C(=S)NCC3CCCO3)cc2c1", "note": "(configuration not stated)", "Potency": "inconclusive: 0.562 µM [quencher, side channel, single point]"},
      {"smiles": "CC(C)(C)c1ccc(-c2nc3n(c(=O)c2C#N)CCS3)cc1", "Potency": "inconclusive: 12.6 µM [quencher, side channel, partial curve]"},
      {"smiles": "CCCCCCN1C=CC(=C2C(=O)c3ccccc3C2=O)C=C1", "Potency": "inconclusive: 17.8 µM [quencher, side channel, partial curve, poor fit]"},
      {"smiles": "O=C(Cn1cnc2cc([N+](=O)[O-])ccc2c1=O)NCc1ccccc1", "Potency": "inconclusive: 7.94 µM [quencher, side channel, partial curve]"},
      {"smiles": "CCOc1ccc(/C=N/Nc2ccccn2)cc1OC", "Potency": "inconclusive: 25.1 µM [quencher, side channel, single point]"},
      {"smiles": "Cc1cc(SCC(=O)N/N=C/c2ccc(O)cc2O)nc2ccccc12", "Potency": "inactive"},
      {"smiles": "CC(NS(=O)(=O)c1ccc(CCC(=O)NCC2CCCO2)cc1)c1ccccc1", "note": "(configuration not stated)", "Potency": "inconclusive: 44.7 µM [fluorescent, side channel, partial curve]"},
      {"smiles": "Cc1cc(CN(C)C(=O)CC2C(=O)NCCN2Cc2c(F)cccc2Cl)n[nH]1", "note": "(configuration not stated)", "Potency": "inactive"},
      {"smiles": "CC(C)OC(=O)CSc1nc(N)c(C#N)c(-c2ccco2)c1C#N", "Potency": "inconclusive: 31.6 µM [fluorescent, side channel, partial curve]"},
      {"smiles": "CCCCn1c(-c2ccc([N+](=O)[O-])cc2)n[nH]c1=S", "Potency": "inconclusive: 14.1 µM [quencher, side channel, partial curve]"},
      {"smiles": "CN1C(=O)/C(=C/c2ccc(-c3ccccc3[N+](=O)[O-])o2)SC1=Nc1ccc(Cl)c(C(=O)O)c1", "Potency": "inconclusive: 44.7 µM [quencher, side channel, single point]"},
      {"smiles": "NS(=O)(=O)c1ccc2c(c1)C(=NO)c1cc(S(N)(=O)=O)ccc1-2", "Potency": "inconclusive: 12.6 µM [quencher, side channel, partial curve]"},
      {"smiles": "CCCCC1C(=O)N(c2ccccc2)N(c2ccccc2)C1=O", "Potency": "inconclusive: 79.4 µM [inhibitor, partial curve]"},
      {"smiles": "COc1cccc(-c2ccc(=O)n(CC(=O)NCCN3CCOCC3)n2)c1", "Potency": "inconclusive: 3.16 µM [quencher, side channel, single point]"},
      {"smiles": "O=C(Nc1ccccc1C(=O)Nc1nnc(C(F)(F)F)s1)c1ccccc1Cl", "Potency": "inactive"},
      {"smiles": "NC1=CC(=O)c2cccc3cccc1c23", "Potency": "inconclusive: 14.1 µM [quencher, side channel, partial curve]"},
      {"smiles": "O=c1[nH]nc(CNc2ccc(O)cc2)c2ccccc12", "Potency": "inconclusive: 17.8 µM [quencher, side channel, single point]"}
    ]}
  ]
}
